Enrichment data for twelve sequences are collected here from the supplement of paper PMC12230231.

± gives the standard deviation of the averaged measurements. Restriction of a single-cycle SIVsab GFP reporter by TRIM5α v1-loop variants in CRFK cells. Human variants: read share among cells still uninfected after two challenges over input, higher = gained restriction. Rhesus variants: share among infected cells over input, higher = lost restriction. Reporter dose not given per row. No active / inactive call per row; the paper calls a change when both replicates lie above its controls (mean + 2 SD of stop or wild-type variants, or the top frameshift score). Residues outside the varied loop are taken from Swiss-Prot. The paper reads the human single-substitution scores as noise; they and the rhesus combinations repeat poorly (rank correlation 0.3 to 0.4), indel scores repeat only for the top variants, rhesus substitutions well (0.9).

For this data set, the system named is SIVsab (simian immunodeficiency virus of sabaeus monkeys), single-cycle GFP reporter, in CRFK cells. Briefly: enrichment among uninfected cells over input (fold); higher = stronger restriction. To be noted: library: human / rhesus combinations. The method, then:
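Pools of CRFK cells expressing variants of the TRIM5α v1 loop were challenged with the single-cycle reporter, sorted by GFP and sequenced; mean of two replicates.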
In the case of “MASGILVNVKEEVTCPICLELLTQPLSLDCGHSFCQACLTANHKKSMLDKGESSCPVCRISYQPENIRPNRHVANIVEKLREVKLSPEGQKVDHCARHGEKLLLFCQEDGKVICWLCERSQEHRGHHTFLTEEVAREYQVKLQAALEMLRQKQQEAEELEADIREEKASWKTQIQYDKTNVLADFEQLRDILDWEESNELQNLEKEEEDILKSLTNSETEMVQQTQSLRELISDLEHRLQGSVMELLQGVDGVIKRTENVTLKKPETFPKNQRRVFRAPDLKGMLEVFRELTDVRRYWVDVTVAPNNISCAVISEDKRQVSSPKPQIIYGAPGTRYQSLTNFNYCTGILGSQSITSGKHYWEVDVSKKTAWILGVCAGFQPDAMCNIEKNENYQPKYGYWVIGLEEGVKCSAFQDSSFHTPSVPFIVPLSVIICPDRVGVFLDYEACTVSFFNITNHGFLIYKFSHCSFSQPVFPYLNPRKCGVPMTLCSPSS [human TRIM5α, 330-340 = GAPGTRYQSLT]”, the enrichment came out at 0.00204 ± 0.00062.
The result for “MASGILVNVKEEVTCPICLELLTQPLSLDCGHSFCQACLTANHKKSMLDKGESSCPVCRISYQPENIRPNRHVANIVEKLREVKLSPEGQKVDHCARHGEKLLLFCQEDGKVICWLCERSQEHRGHHTFLTEEVAREYQVKLQAALEMLRQKQQEAEELEADIREEKASWKTQIQYDKTNVLADFEQLRDILDWEESNELQNLEKEEEDILKSLTNSETEMVQQTQSLRELISDLEHRLQGSVMELLQGVDGVIKRTENVTLKKPETFPKNQRRVFRAPDLKGMLEVFRELTDVRRYWVDVTVAPNNISCAVISEDKRQVSSPKPQIIYGAPGTRYQSLVNFNYCTGILGSQSITSGKHYWEVDVSKKTAWILGVCAGFQPDAMCNIEKNENYQPKYGYWVIGLEEGVKCSAFQDSSFHTPSVPFIVPLSVIICPDRVGVFLDYEACTVSFFNITNHGFLIYKFSHCSFSQPVFPYLNPRKCGVPMTLCSPSS [human TRIM5α, 330-340 = GAPGTRYQSLV]” reads 0.597 ± 0.84; that for “MASGILVNVKEEVTCPICLELLTQPLSLDCGHSFCQACLTANHKKSMLDKGESSCPVCRISYQPENIRPNRHVANIVEKLREVKLSPEGQKVDHCARHGEKLLLFCQEDGKVICWLCERSQEHRGHHTFLTEEVAREYQVKLQAALEMLRQKQQEAEELEADIREEKASWKTQIQYDKTNVLADFEQLRDILDWEESNELQNLEKEEEDILKSLTNSETEMVQQTQSLRELISDLEHRLQGSVMELLQGVDGVIKRTENVTLKKPETFPKNQRRVFRAPDLKGMLEVFRELTDVRRYWVDVTVAPNNISCAVISEDKRQVSSPKPQIIYGAPGTRYTFPSFTNFNYCTGILGSQSITSGKHYWEVDVSKKTAWILGVCAGFQPDAMCNIEKNENYQPKYGYWVIGLEEGVKCSAFQDSSFHTPSVPFIVPLSVIICPDRVGVFLDYEACTVSFFNITNHGFLIYKFSHCSFSQPVFPYLNPRKCGVPMTLCSPSS [human TRIM5α, 330-340 = GAPGTRYTFPSFT]”, 0.104 ± 0.098; that for “MASGILVNVKEEVTCPICLELLTQPLSLDCGHSFCQACLTANHKKSMLDKGESSCPVCRISYQPENIRPNRHVANIVEKLREVKLSPEGQKVDHCARHGEKLLLFCQEDGKVICWLCERSQEHRGHHTFLTEEVAREYQVKLQAALEMLRQKQQEAEELEADIREEKASWKTQIQYDKTNVLADFEQLRDILDWEESNELQNLEKEEEDILKSLTNSETEMVQQTQSLRELISDLEHRLQGSVMELLQGVDGVIKRTENVTLKKPETFPKNQRRVFRAPDLKGMLEVFRELTDVRRYWVDVTVAPNNISCAVISEDKRQVSSPKPQIIYGAPGTRYTFPSFVNFNYCTGILGSQSITSGKHYWEVDVSKKTAWILGVCAGFQPDAMCNIEKNENYQPKYGYWVIGLEEGVKCSAFQDSSFHTPSVPFIVPLSVIICPDRVGVFLDYEACTVSFFNITNHGFLIYKFSHCSFSQPVFPYLNPRKCGVPMTLCSPSS [human TRIM5α, 330-340 = GAPGTRYTFPSFV]”, 0.161 ± 0.059.
The result for “MASGILVNVKEEVTCPICLELLTQPLSLDCGHSFCQACLTANHKKSMLDKGESSCPVCRISYQPENIRPNRHVANIVEKLREVKLSPEGQKVDHCARHGEKLLLFCQEDGKVICWLCERSQEHRGHHTFLTEEVAREYQVKLQAALEMLRQKQQEAEELEADIREEKASWKTQIQYDKTNVLADFEQLRDILDWEESNELQNLEKEEEDILKSLTNSETEMVQQTQSLRELISDLEHRLQGSVMELLQGVDGVIKRTENVTLKKPETFPKNQRRVFRAPDLKGMLEVFRELTDVRRYWVDVTVAPNNISCAVISEDKRQVSSPKPQIIYGAPGTRYTFPSLTNFNYCTGILGSQSITSGKHYWEVDVSKKTAWILGVCAGFQPDAMCNIEKNENYQPKYGYWVIGLEEGVKCSAFQDSSFHTPSVPFIVPLSVIICPDRVGVFLDYEACTVSFFNITNHGFLIYKFSHCSFSQPVFPYLNPRKCGVPMTLCSPSS [human TRIM5α, 330-340 = GAPGTRYTFPSLT]” reads 0.0907 ± 0.055; that for “MASGILVNVKEEVTCPICLELLTQPLSLDCGHSFCQACLTANHKKSMLDKGESSCPVCRISYQPENIRPNRHVANIVEKLREVKLSPEGQKVDHCARHGEKLLLFCQEDGKVICWLCERSQEHRGHHTFLTEEVAREYQVKLQAALEMLRQKQQEAEELEADIREEKASWKTQIQYDKTNVLADFEQLRDILDWEESNELQNLEKEEEDILKSLTNSETEMVQQTQSLRELISDLEHRLQGSVMELLQGVDGVIKRTENVTLKKPETFPKNQRRVFRAPDLKGMLEVFRELTDVRRYWVDVTVAPNNISCAVISEDKRQVSSPKPQIIYGAPGTRYTFPSLVNFNYCTGILGSQSITSGKHYWEVDVSKKTAWILGVCAGFQPDAMCNIEKNENYQPKYGYWVIGLEEGVKCSAFQDSSFHTPSVPFIVPLSVIICPDRVGVFLDYEACTVSFFNITNHGFLIYKFSHCSFSQPVFPYLNPRKCGVPMTLCSPSS [human TRIM5α, 330-340 = GAPGTRYTFPSLV]”, 0.163 ± 0.054; that for “MASGILVNVKEEVTCPICLELLTQPLSLDCGHSFCQACLTANHKKSMLDKGESSCPVCRISYQPENIRPNRHVANIVEKLREVKLSPEGQKVDHCARHGEKLLLFCQEDGKVICWLCERSQEHRGHHTFLTEEVAREYQVKLQAALEMLRQKQQEAEELEADIREEKASWKTQIQYDKTNVLADFEQLRDILDWEESNELQNLEKEEEDILKSLTNSETEMVQQTQSLRELISDLEHRLQGSVMELLQGVDGVIKRTENVTLKKPETFPKNQRRVFRAPDLKGMLEVFRELTDVRRYWVDVTVAPNNISCAVISEDKRQVSSPKPQIIYGAPGTRYTFPTFTNFNYCTGILGSQSITSGKHYWEVDVSKKTAWILGVCAGFQPDAMCNIEKNENYQPKYGYWVIGLEEGVKCSAFQDSSFHTPSVPFIVPLSVIICPDRVGVFLDYEACTVSFFNITNHGFLIYKFSHCSFSQPVFPYLNPRKCGVPMTLCSPSS [human TRIM5α, 330-340 = GAPGTRYTFPTFT]”, 0.0845 ± 0.12.
The result for “MASGILVNVKEEVTCPICLELLTQPLSLDCGHSFCQACLTANHKKSMLDKGESSCPVCRISYQPENIRPNRHVANIVEKLREVKLSPEGQKVDHCARHGEKLLLFCQEDGKVICWLCERSQEHRGHHTFLTEEVAREYQVKLQAALEMLRQKQQEAEELEADIREEKASWKTQIQYDKTNVLADFEQLRDILDWEESNELQNLEKEEEDILKSLTNSETEMVQQTQSLRELISDLEHRLQGSVMELLQGVDGVIKRTENVTLKKPETFPKNQRRVFRAPDLKGMLEVFRELTDVRRYWVDVTVAPNNISCAVISEDKRQVSSPKPQIIYGAPGTRYTFPTFVNFNYCTGILGSQSITSGKHYWEVDVSKKTAWILGVCAGFQPDAMCNIEKNENYQPKYGYWVIGLEEGVKCSAFQDSSFHTPSVPFIVPLSVIICPDRVGVFLDYEACTVSFFNITNHGFLIYKFSHCSFSQPVFPYLNPRKCGVPMTLCSPSS [human TRIM5α, 330-340 = GAPGTRYTFPTFV]” reads 0.296 ± 0.04; that for “MASGILVNVKEEVTCPICLELLTQPLSLDCGHSFCQACLTANHKKSMLDKGESSCPVCRISYQPENIRPNRHVANIVEKLREVKLSPEGQKVDHCARHGEKLLLFCQEDGKVICWLCERSQEHRGHHTFLTEEVAREYQVKLQAALEMLRQKQQEAEELEADIREEKASWKTQIQYDKTNVLADFEQLRDILDWEESNELQNLEKEEEDILKSLTNSETEMVQQTQSLRELISDLEHRLQGSVMELLQGVDGVIKRTENVTLKKPETFPKNQRRVFRAPDLKGMLEVFRELTDVRRYWVDVTVAPNNISCAVISEDKRQVSSPKPQIIYGAPGTRYTFPTLTNFNYCTGILGSQSITSGKHYWEVDVSKKTAWILGVCAGFQPDAMCNIEKNENYQPKYGYWVIGLEEGVKCSAFQDSSFHTPSVPFIVPLSVIICPDRVGVFLDYEACTVSFFNITNHGFLIYKFSHCSFSQPVFPYLNPRKCGVPMTLCSPSS [human TRIM5α, 330-340 = GAPGTRYTFPTLT]”, 0.0683 ± 0.094.
Turning to “MASGILVNVKEEVTCPICLELLTQPLSLDCGHSFCQACLTANHKKSMLDKGESSCPVCRISYQPENIRPNRHVANIVEKLREVKLSPEGQKVDHCARHGEKLLLFCQEDGKVICWLCERSQEHRGHHTFLTEEVAREYQVKLQAALEMLRQKQQEAEELEADIREEKASWKTQIQYDKTNVLADFEQLRDILDWEESNELQNLEKEEEDILKSLTNSETEMVQQTQSLRELISDLEHRLQGSVMELLQGVDGVIKRTENVTLKKPETFPKNQRRVFRAPDLKGMLEVFRELTDVRRYWVDVTVAPNNISCAVISEDKRQVSSPKPQIIYGAPGTRYTFPTLVNFNYCTGILGSQSITSGKHYWEVDVSKKTAWILGVCAGFQPDAMCNIEKNENYQPKYGYWVIGLEEGVKCSAFQDSSFHTPSVPFIVPLSVIICPDRVGVFLDYEACTVSFFNITNHGFLIYKFSHCSFSQPVFPYLNPRKCGVPMTLCSPSS [human TRIM5α, 330-340 = GAPGTRYTFPTLV]”, the enrichment amounted to 0.049 ± 0.015.
Regarding “MASGILVNVKEEVTCPICLELLTQPLSLDCGHSFCQACLTANHKKSMLDKGESSCPVCRISYQPENIRPNRHVANIVEKLREVKLSPEGQKVDHCARHGEKLLLFCQEDGKVICWLCERSQEHRGHHTFLTEEVAREYQVKLQAALEMLRQKQQEAEELEADIREEKASWKTQIQYDKTNVLADFEQLRDILDWEESNELQNLEKEEEDILKSLTNSETEMVQQTQSLRELISDLEHRLQGSVMELLQGVDGVIKRTENVTLKKPETFPKNQRRVFRAPDLKGMLEVFRELTDVRRYWVDVTVAPNNISCAVISEDKRQVSSPKPQIIYGAPGTRYTFQSFTNFNYCTGILGSQSITSGKHYWEVDVSKKTAWILGVCAGFQPDAMCNIEKNENYQPKYGYWVIGLEEGVKCSAFQDSSFHTPSVPFIVPLSVIICPDRVGVFLDYEACTVSFFNITNHGFLIYKFSHCSFSQPVFPYLNPRKCGVPMTLCSPSS [human TRIM5α, 330-340 = GAPGTRYTFQSFT]”, the enrichment turned out to be 0.199 ± 0.057.
In the case of “MASGILVNVKEEVTCPICLELLTQPLSLDCGHSFCQACLTANHKKSMLDKGESSCPVCRISYQPENIRPNRHVANIVEKLREVKLSPEGQKVDHCARHGEKLLLFCQEDGKVICWLCERSQEHRGHHTFLTEEVAREYQVKLQAALEMLRQKQQEAEELEADIREEKASWKTQIQYDKTNVLADFEQLRDILDWEESNELQNLEKEEEDILKSLTNSETEMVQQTQSLRELISDLEHRLQGSVMELLQGVDGVIKRTENVTLKKPETFPKNQRRVFRAPDLKGMLEVFRELTDVRRYWVDVTVAPNNISCAVISEDKRQVSSPKPQIIYGAPGTRYTFQSFVNFNYCTGILGSQSITSGKHYWEVDVSKKTAWILGVCAGFQPDAMCNIEKNENYQPKYGYWVIGLEEGVKCSAFQDSSFHTPSVPFIVPLSVIICPDRVGVFLDYEACTVSFFNITNHGFLIYKFSHCSFSQPVFPYLNPRKCGVPMTLCSPSS [human TRIM5α, 330-340 = GAPGTRYTFQSFV]”, the enrichment amounted to 0.226 ± 0.096.
